Experimental findings from patent publication US20250205268A1, “TREATMENT OF VIRUSES WITH ANTIVIRAL NUCLEOSIDES” (priority 2021, published 2025) are described below.

With `CC(C)C(=O)OC[C@H]1O[C@@H](n2ccc(NO)nc2=O)[C@H](O)[C@@H]1O` [Compound A, {(2R,3S,4R,5R)-3,4-dihydroxy-5-[4-(hydroxyimino)-2-oxo-3,4-dihydropyrimidin-1 (2H)-yl]oxolan-2-yl}methyl 2-methylpropanoate], the “finding in 28-day toxicity study” value (17 mg/kg/day in dogs, apparent at Day 7, increasing severity from Day 14) is “reversible hematology changes consistent with bone marrow toxicity”. Also, the hematologic toxicity entry (preclinical, noted on Day 7, progressed to more severe pancytopenia after 14-21 days of continuous exposure, fully reversible) was “mild hematologic toxicity”.
